The labels stand for the following.
B1: OR4K15 (parent)
chain: GUUAACGGUCAUAGGCCAUGGAAACUAGGAGCACCAUUUCGCUGCCAGUGAAGAAAUGAACAAAGAAAAUCUGGGCCAGGCAGGCAUCAAAAGAAAUAGUCUUGCGCUCAACCAGAAAGUCUGUAAUCAUUUUAAGGGUA

Drawing on the RNAGym collection of RNA variant scans (doi:10.7554/elife.90254), this text covers self-cleavage for 167 variants.

Read counts are not given, so values of variants with three or more changes are uncertain.

Variants of B1 are the subject of this data set. As to the kind of experiment: self-cleavage, relative activity (ratio to wild type); higher = more cleavage; in vitro, sequencing; the parent is a self-cleaving ribozyme.
Take A51G A54U U103A U124C: the self-cleavage stood at 0.26.

For A51U A67G A69G, the self-cleavage was determined as 0.5.

With A51U A82G A90U U120C, the self-cleavage came out at 0.6.

Turning to A51G A62G U139C, the self-cleavage was 0.84.

For the variant A52G A64U A67G U72A A82U C128A, the self-cleavage was 0.15.

In the case of A51G A63G A67U A82G A95G A117G A126U, the self-cleavage stood at 0.53.

Turning to A51G A62U A96U A111G A114G, the self-cleavage was 0.03.

For the variant A51G A55G C61U C77A A114G, the self-cleavage was found to be 0.26.

On to A51G A94G A117G U124C, for which the self-cleavage stood at 0.74.

Regarding A52G A63G U132A, the self-cleavage came to 0.96.

In the case of A51G U70C A117G, the self-cleavage was 2.17.

In the case of A52G A59G A69G U122A U139C, the self-cleavage was 1.15.

Regarding A51G U102A A129G, the self-cleavage turned out to be 0.37.

On to A51G G53U A82G, for which the self-cleavage was 0.51.

In the case of A51G A59G C77U A126G, the self-cleavage turned out to be 1.65.

For A51U A86G A94G, the self-cleavage came out at 1.71.

On to A51G A86G U87C A96G A116G, for which the self-cleavage came out at 0.37.

For the variant A51U U87C A111G, the self-cleavage turned out to be 0.01.

For the variant A51G U57A A91G G136A U139C, the self-cleavage came to 0.07.

A51G A54G A114U: the self-cleavage was determined as 0.08.

With A51G A63G A110G, the self-cleavage came out at 0.15.

A51G A89G G137U: the self-cleavage was 1.16.

Turning to A52G A55G U127A, the self-cleavage was 1.71.

For A52G A67G A114G, the self-cleavage was 0.89.

Consider A51U A95G A126G, for which the self-cleavage is 1.48.

Consider A52G A55G A92G, for which the self-cleavage was 0.96.

On to A51G A126C U130C U139C, for which the self-cleavage came to 0.48.

Consider A52G A63G U127C, for which the self-cleavage amounted to 1.31.

On to A51U A68U U72C, for which the self-cleavage was 0.18.

For the variant A52G A67G A86U A110G, the self-cleavage worked out at 0.15.

On to A52G A64G U97A, for which the self-cleavage amounted to 0.94.

A51U A54G A67G A134G: the self-cleavage came out at 1.33.

Consider A52G A59U A64G U72A A110G, for which the self-cleavage was 0.02.

Consider A51G A54U A59G A117G, for which the self-cleavage amounted to 0.81.

In the case of A52C A86C U102C, the self-cleavage is 1.63.

Regarding A51U U103A U122C, the self-cleavage worked out at 0.43.

As to A51G A82U U120C, the self-cleavage is 0.13.

On to A51G A56G A60U U72A, for which the self-cleavage was determined as 0.48.

Regarding A51G A55G U87C, the self-cleavage was 0.86.

Regarding A51G U70C A94G, the self-cleavage came out at 0.96.

In the case of A52G A63U A95G, the self-cleavage worked out at 2.33.

Consider A52G A55G G106U, for which the self-cleavage is 0.05.

As for A52G A56G A59G A92G U120G U131C, the self-cleavage stood at 0.89.

In the case of A52G A67G A89G U122A U127C, the self-cleavage amounted to 1.85.

Regarding A52G A60U A68G, the self-cleavage was found to be 0.69.

For A52C U103C A114G, the self-cleavage was determined as 0.07.

As for A51G A117U U127C A134G, the self-cleavage was found to be 0.37.

As for A51U A98U A118G A126G, the self-cleavage turned out to be 0.69.

For the variant A51G A94G A111G, the self-cleavage is 0.01.

In the case of A51G A59G A94G U132A, the self-cleavage amounted to 0.93.

As to A51G U108A G137U, the self-cleavage was determined as 0.04.

As for A52G A63G C77U A89C, the self-cleavage is 2.09.

With A51G A66G U70C U100C U124A, the self-cleavage amounted to 0.6.

For the variant A51U A52G A56G, the self-cleavage is 1.71.

Consider A51G U72A A114U, for which the self-cleavage is 1.45.

Consider A51G A69U A96G A111G A118G, for which the self-cleavage worked out at 0.01.

As to A51U A52G U97C U102A, the self-cleavage was determined as 0.33.

Consider A51G A92G A126U, for which the self-cleavage was 1.46.

As for A52G A64G G93A U127C, the self-cleavage came to 0.67.

Regarding A51G A78U U132C U139C, the self-cleavage is 0.58.

Take A51G A89G A126G: the self-cleavage was found to be 0.67.

In the case of A51G A64G A118G, the self-cleavage is 0.63.

With A52C A54G A55G U57C A89G, the self-cleavage is 1.05.

A52C A64C A92G: the self-cleavage was determined as 0.16.

With A51G G65A A118G, the self-cleavage is 1.44.

On to A51U U102C U120C, for which the self-cleavage was 2.11.

A51U U102C U120A: the self-cleavage worked out at 1.67.

With A52G A55G U87C A96G U120C U122C, the self-cleavage was determined as 0.53.

Take A51G A54G U57C A98G U122G A125G: the self-cleavage is 0.22.

With A51G U87C A94U U131C, the self-cleavage stood at 0.51.

Consider A51G A89G A94G, for which the self-cleavage was determined as 1.74.

Turning to A52G A59G U120C, the self-cleavage is 1.03.

A51G A54G U100G: the self-cleavage amounted to 0.34.

As to A52G A67G U108C A111G, the self-cleavage worked out at 0.01.

As to A51U A96G A111G U130C, the self-cleavage stood at 0.01.

As for A51G A60G A86G A111G, the self-cleavage is 0.04.

As to A51G A82G A118G U131C, the self-cleavage came to 0.05.

Take A52G A59G U122A: the self-cleavage is 1.53.

Turning to A51G G99A G123C, the self-cleavage was 0.34.

Turning to A51G A78U A95G A114G, the self-cleavage came out at 0.35.

On to A51G A66G A69G A118G, for which the self-cleavage is 0.67.

For the variant A52G A59U U102A, the self-cleavage was 0.72.

Take A51G A54U A60G A91G: the self-cleavage was found to be 0.3.

A51G A94G A116G A129G: the self-cleavage worked out at 1.02.

Take A51G A63U A86G C107U A116G: the self-cleavage was determined as 0.03.

Take A51U A54G A63U U132C: the self-cleavage came out at 2.25.

As to A51U A69U A82G, the self-cleavage stood at 1.

Take A51G A69G A116G: the self-cleavage turned out to be 0.33.

A51G A91U U139C: the self-cleavage was determined as 1.74.

Consider A51U A94G A95G U108C G137A, for which the self-cleavage worked out at 0.03.

A52G A55U A69G A89U A114G A126G: the self-cleavage was 0.21.

Turning to A51U A52U A94G A111U, the self-cleavage was 0.05.

Consider A51G A89G A92G, for which the self-cleavage stood at 1.88.

Regarding A52G A55G U102A, the self-cleavage was found to be 1.08.

For A51U G74A A92G A98G, the self-cleavage came out at 0.04.

Take A52G A60G U122G: the self-cleavage came to 0.5.

On to A52G A60G A118G, for which the self-cleavage was found to be 0.57.

On to A52G A62U A90C U108A A135G, for which the self-cleavage was found to be 0.

A51G A90G U132C: the self-cleavage is 2.14.

With A52G A62G A96U A129G, the self-cleavage is 1.1.

On to A52G A59G C85U A98G, for which the self-cleavage is 0.45.

A51G A126G U139C A140C: the self-cleavage worked out at 0.34.

Take A52G A59G A90G: the self-cleavage is 0.63.

Consider A51G U127C A129G, for which the self-cleavage was 0.41.

Turning to A51G A89U A110G, the self-cleavage was 0.03.

As to A52G A67G U122C, the self-cleavage stood at 0.74.

Consider A51G A66G A126G, for which the self-cleavage came out at 1.14.

For A51G A78C U131C, the self-cleavage was determined as 0.34.

Turning to A52G A67G U87C A96C U139A, the self-cleavage came out at 0.93.

Take A51G A90G A92G U120C: the self-cleavage was 0.25.

A51U A52G A94U U130C: the self-cleavage amounted to 1.19.

Consider A52G A54G A62C U87C A96G U100C, for which the self-cleavage was found to be 2.51.

Consider A51G A66G A82U, for which the self-cleavage amounted to 0.31.

Turning to A51G A78U A82G A95G U130C, the self-cleavage was determined as 0.1.

A51G A95G U108C U130C: the self-cleavage is 0.

As for A51G A64G U103A, the self-cleavage amounted to 0.38.

On to A51U U103C A114C, for which the self-cleavage is 0.

On to A52G A62G A110U, for which the self-cleavage was 1.45.

Consider A51G A59U A116G, for which the self-cleavage came out at 0.54.

As to A51G A111G A114G, the self-cleavage turned out to be 0.01.

In the case of A51U U122C U139C, the self-cleavage was determined as 0.3.

On to A52G A67U A68G A82G, for which the self-cleavage came out at 0.92.

For the variant A52G A59G A68G, the self-cleavage stood at 1.15.

Regarding A51U A59C U103C A116U, the self-cleavage came out at 0.02.

With A52G A63G U102A, the self-cleavage was 1.36.

As for A51G A110C A114G, the self-cleavage stood at 0.08.

Take A51U A54G A56G A94G A134G A140U: the self-cleavage was found to be 2.48.

Consider A51U A54U A90G A96G U130C, for which the self-cleavage is 0.99.

For A51G A66G U132C, the self-cleavage worked out at 0.81.

Consider A51G A82U A111G, for which the self-cleavage came to 0.02.

Consider A51G A59U A60G A67G U127C, for which the self-cleavage turned out to be 0.3.

Turning to A52G A69U C76A A92G A110G U131C, the self-cleavage was determined as 0.04.

For A51G U70C G138A, the self-cleavage came to 0.45.

As for A51U A56G A64G A66G A117G, the self-cleavage is 1.97.

For A51G U108C U122C, the self-cleavage came to 0.01.

As to A51G U87C U100C, the self-cleavage was determined as 2.61.

In the case of A51U U57C A95G A117G, the self-cleavage came to 2.56.

Turning to A51U A62G A91G A94G, the self-cleavage is 0.68.

For A51G A60G A69G U103C, the self-cleavage came out at 0.3.

As to A51U U72A U87A A90G A95G, the self-cleavage stood at 0.24.

On to A51G U87C U120C, for which the self-cleavage was 0.19.

Take A52G A59U A117G G119A U124A: the self-cleavage worked out at 1.42.

Consider A52G A56G A96G U103A G104A A111G, for which the self-cleavage was 0.02.

On to A51G A91G U122G, for which the self-cleavage was 2.43.

Consider A52G A54G A90U, for which the self-cleavage came out at 1.65.

For A51G U70C A86C U108C, the self-cleavage was 0.03.

A51U A56G U57C A82G: the self-cleavage stood at 0.51.

Regarding A51G G79A C105U, the self-cleavage amounted to 0.

For the variant A52G A67U U87C, the self-cleavage came to 1.65.

As for A51G A64G G74A A111G, the self-cleavage was determined as 0.02.

A51G U87C A129G: the self-cleavage came out at 1.46.

Consider A51G A96G A140G, for which the self-cleavage came out at 1.76.

Turning to A51U A95U A140G, the self-cleavage is 2.88.

On to A51G U70A C88U U120A U139C, for which the self-cleavage came to 0.96.

As for A52G A69U A89G A116U A118G U127C, the self-cleavage was 0.01.

Consider A51U A67G A78G A118G, for which the self-cleavage amounted to 0.12.

As to A51U A69G U70C U132C A135G, the self-cleavage came out at 0.12.

Regarding A51G C81U U127C, the self-cleavage amounted to 0.01.

As to A51G A59U U132C, the self-cleavage is 1.68.

As to A52G A54U U70A, the self-cleavage was found to be 0.55.

In the case of A51G A62U A78G, the self-cleavage was found to be 0.45.

As to A52C A56G G83A, the self-cleavage stood at 1.58.

For A52G A56G A82G C121A, the self-cleavage is 1.07.

Take A51G U57C A118U A129G: the self-cleavage came out at 0.15.

Take A51G A56G A94G U131C: the self-cleavage was 0.88.

On to A51U A68G A94U, for which the self-cleavage was 1.1.

As for A52G A59U U108A A116U, the self-cleavage came to 0.03.
